# Results reported in PubChem BioAssay AID743449 (Broad Institute, 2014).
# About 90 (0.9%) of roughly 9,900 compounds were called active. The inconclusive results got no clear call from the source; some entries with a clear call stand among them for comparison.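 Rule for the calls: active = mean normalized replicate activity at least 50 and at least half of replicates each reaching 50; inconclusive = only one of the two criteria met; inactive = neither criterion met.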
# Assay: reduction of CTGF mRNA in DLD1 cells – DLD1 colon cancer cells, RT-qPCR, single point, primary screen (AID 743449);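 note: 0% = neutral control wells and 100% = dasatinib control wells; higher means stronger suppression of CTGF expression like dasatinib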
# Details: 24 h, at 12.5 µM, hits give high values
row,Compound,inhibition
1,C[C@@H]1CCCCO[C@@H](CN(C)S(=O)(=O)c2ccc(F)cc2)[C@H](C)CN([C@@H](C)CO)C(=O)c2cc(N(C)C)ccc2O1,inconclusive: 47.1%
2,COc1ccccc1-c1ccc([C@H]2[C@H](CO)N3CCCCN(C(=O)c4cccnc4)C[C@@H]23)cc1,inconclusive: 35.5%
3,CCS(=O)(=O)Nc1ccc2c(c1)C(=O)N(C)[C@@H]1CC[C@@H](CC(=O)N[C@H]3CCN(Cc4ccccc4)C3)O[C@H]1CO2,inconclusive: 19.8%
4,CO[C@@H]1CN(C)C(=O)c2cc(NC(=O)Nc3ccccc3F)ccc2OC[C@H](C)N(CCC(F)(F)F)C[C@H]1C,inactive: 21%
5,C[C@H](CO)N1C[C@H](C)[C@@H](CN(C)S(=O)(=O)c2ccc([N+](=O)[O-])cc2)OCc2ccccc2-c2c(n(C)c3ccccc23)C1=O,active: 63.8%
6,CC(C)(C)[S@](=O)N1Cc2cc(C(=O)NC3CCC3)nc(-c3cccc(-c4ccccc4F)c3)c2[C@@H]1CCO,inactive: 41%
7,COc1ccc(CNC(=O)C[C@@H]2CC[C@H](NC(=O)CN(C)C)[C@@H](CO)O2)cc1,inconclusive: 10.1%
8,C[C@H]1CN([C@@H](C)CO)C(=O)c2cc(C#CC3(O)CCCC3)cnc2O[C@@H]1CN(C)S(=O)(=O)c1cccc(F)c1,inconclusive: 37.4%
9,C[C@@H]1CN([C@H](C)CO)C(=O)Cc2cc(N(C)C)ccc2O[C@H]1CN(C)Cc1ccc(-c2ccccc2)cc1,inactive: -24.6%
10,Cc1noc(C)c1S(=O)(=O)N(C)C[C@@H]1OCc2cnnn2CCCC(=O)N([C@@H](C)CO)C[C@@H]1C,inconclusive: 27.9%
11,CNC[C@H]1OCc2cn(nn2)CCCC(=O)N([C@H](C)CO)C[C@H]1C,inconclusive: 33.8%
12,CC(C)(C)[S@@](=O)N1Cc2cc(C(=O)NCc3ccccn3)nc(-c3cccc(-c4ccccc4F)c3)c2[C@H]1CCO,inactive: -29.9%
13,N#C[C@@H]1[C@H](c2ccccc2)[C@H](CO)N1C(=O)Nc1cccc(F)c1,inconclusive: 37.2%
14,CC(C)(C)S(=O)N1Cc2cc(C(=O)NCc3ccc(Oc4ccccc4)cc3)nc(-c3cccc(-c4cccc(F)c4)c3)c2[C@@H]1CCO (some centres not stated),inactive: 9.98%
15,C[C@@H]1CN([C@H](C)CO)C(=O)CCCn2nncc2CO[C@@H]1CN(C)S(=O)(=O)c1ccccc1C#N,inconclusive: 23.4%
16,C[C@H]1CC=CC[C@H](c2ccc(F)cc2)NC(=O)[C@H](Cc2ccccc2)N(C)C(=O)c2ccccc2O1 (mixture of isomers),inactive: -3.91%
17,COc1ccc2c3c([nH]c2c1)[C@H](CO)N(C(=O)Nc1ccc(F)cc1)CC31CCN(C(=O)c2ccccc2F)CC1,inconclusive: 34.9%
18,C[C@@H]1CN([C@@H](C)CO)C(=O)c2cc(C#Cc3ccccc3)cnc2O[C@H]1CN(C)C(=O)c1ccccc1,inconclusive: 45.9%
19,CC(C)(C)[S@@](=O)N1Cc2cc(C(=O)NCCc3ccncc3)nc(-c3cccc(-c4cccc(C#N)c4)c3)c2[C@H]1CCO,active: 67.3%
20,C[C@@H]1CC=CC[C@H](c2ccc(F)cc2)NC(=O)[C@@H](Cc2ccccc2)N(C)C(=O)c2ccccc2O1 (mixture of isomers),active: 60.2%
21,C[C@@H]1CCCCO[C@@H](CN(C)C(=O)Nc2ccccc2)[C@H](C)CN([C@@H](C)CO)C(=O)c2cc(NC(=O)Nc3ccccc3)ccc2O1,inactive: 16.9%

row,Compound,inhibition
1,Cc1ccc(S(=O)(=O)N[C@H]2CC[C@@H](CC(=O)NCc3ccncn3)O[C@H]2CO)cc1,inconclusive: 16.6%
2,C[C@H]1CN([C@@H](C)CO)C(=O)c2ccccc2-c2ccccc2CO[C@H]1CN(C)Cc1ccccc1C(F)(F)F,inactive: 12.5%
3,C[C@@H]1CC=CC[C@H](c2cccc(Cl)c2)NC(=O)[C@@H](Cc2ccccc2)N(C)C(=O)c2ccccc2O1 (mixture of isomers),inconclusive: 48.6%
4,O=C(NC[C@@H]1[C@@H](c2ccccc2)[C@@H](CO)N1C(=O)Cc1ccncc1)C1CCC1,inconclusive: 34.8%
5,O=C([C@@H]1[C@@H](CO)[C@@H]2Cn3c(cccc3=O)[C@@H]2N1C(=O)CC1CC1)N1CCc2ccccc2C1,inconclusive: 37.3%
6,Cc1ccc(S(=O)(=O)Nc2ccc3c(c2)C(=O)N([C@H](C)CO)C[C@H](C)[C@@H](CN(C)S(=O)(=O)c2cccs2)OCCCC[C@H](C)O3)cc1,inactive: -31%
7,CCNC(=O)[C@@H]1[C@@H](CO)[C@@H]2Cn3c(cccc3=O)[C@H]1N2C(=O)Nc1cc(F)ccc1F,inactive: -43%
8,C[C@@H]1CN([C@@H](C)CO)C(=O)c2ccccc2-c2ccccc2CO[C@H]1CN(C)C(=O)Nc1cccc(C(F)(F)F)c1,active: 64.7%
9,COc1ccc([C@H]2C/C=C\C[C@@H](c3ccc4c(c3)OCO4)NC(=O)[C@@H](c3ccccc3)CC(=O)N2)c(OC)c1,active: 58.4%
10,C[C@H](CO)N1C[C@H](C)[C@H](CN(C)C(=O)Nc2ccc(C(F)(F)F)cc2)Oc2c(NC(=O)c3ccc(-c4nccs4)cc3)cccc2C1=O,inactive: -20.1%
11,O=C(O)C[C@@H]1C=C[C@H](NC(=O)Nc2cc(F)ccc2F)[C@@H](CO)O1,inconclusive: 15.5%
12,CNC[C@H]1OCc2cn(nn2)CCCC(=O)N([C@@H](C)CO)C[C@@H]1C,inconclusive: 35.4%
13,COc1ccc2c3c(n(C)c2c1)[C@H](CO)N(S(C)(=O)=O)CC31CCN(C(=O)Nc2cccc(F)c2)CC1,inconclusive: 49.5%
14,C[C@@H]1CN([C@@H](C)CO)C(=O)c2cc(C#Cc3ccccc3)cnc2O[C@@H]1CN(C)C(=O)c1ccccc1,inconclusive: 49.8%
15,COc1ccc(C#Cc2ccc3c(c2)[C@H]2[C@H](CCN2S(=O)(=O)c2ccccc2C)[C@@H](CO)N3C)cc1,inactive: -15.4%
16,O=C(Nc1ccc2c(c1)[C@H]1C[C@H](CC(=O)N3CCc4ccccc4C3)O[C@H](CO)[C@H]1O2)c1ccc2c(c1)OCO2,inactive: 17%
17,C[C@@H]1CN([C@@H](C)CO)C(=O)CCCn2cc(nn2)CO[C@@H]1CN(C)C(=O)CCC(F)(F)F,inconclusive: 30.3%
18,CCS(=O)(=O)N1CC2(C1)[C@H](c1ccccc1)[C@@H](CO)N2C(=O)c1ccccc1,inconclusive: 20.3%
19,CO[C@@H](CN(C)S(=O)(=O)c1ccc(F)cc1)[C@@H](C)CN(Cc1ccccc1Cl)[C@H](C)CO,inconclusive: 35.8%
20,C[C@@H]1CN([C@H](C)CO)C(=O)CCCn2nncc2CO[C@H]1CN(C)C(=O)Nc1ccnc(N2CCOCC2)c1,inconclusive: -10.7%
21,COc1cccc(C#Cc2ccc3c(c2)O[C@@H](CN(C)C(=O)CN2CCOCC2)[C@@H](C)CN([C@@H](C)CO)S3(=O)=O)c1,active: 50.7%

row,Compound,inhibition
1,CCCC#Cc1ccc2c(c1)O[C@H](CN(C)Cc1ccccn1)[C@H](C)CN([C@@H](C)CO)S2(=O)=O,inconclusive: 4.24%
2,C[C@H](CO)N1C[C@H](C)[C@@H](CN(C)C(=O)Nc2ccc(C(F)(F)F)cc2)Oc2c(NC(=O)c3ccc(-c4nccs4)cc3)cccc2C1=O,inconclusive: 46.5%
3,C[C@@H]1CN([C@H](C)CO)S(=O)(=O)c2ccc(-c3ccncc3)cc2O[C@H]1CN(C)S(C)(=O)=O,inconclusive: 22.6%
4,C[C@@H]1CN([C@@H](C)CO)C(=O)c2cc(NC(=O)Nc3ccccc3)ccc2O[C@@H](C)CCCCO[C@H]1CN(C)C(=O)Nc1ccccc1,inconclusive: 49.1%
5,C[C@H](O)C#Cc1ccc([C@@H]2[C@@H](CO)N3CCCCN(C(=O)c4ccc5c(c4)OCO5)C[C@H]23)cc1,inactive: -21.5%
6,C[C@@H]1COCc2cnnn2CC[C@@H](Cc2ccccc2)C(=O)N1,inconclusive: 44.1%
7,COc1ccc(S(=O)(=O)N(C)C[C@H]2Oc3ccc(NC(=O)Nc4ccc(C(F)(F)F)cc4)cc3C(=O)N([C@@H](C)CO)C[C@@H]2C)cc1,inactive: -95.1%
8,CCS(=O)(=O)NCC[C@@H]1CC[C@@H](NC(=O)Nc2cc(Cl)cc(Cl)c2)[C@H](CO)O1,inconclusive: 33.4%
9,C[C@@H]1CN([C@@H](C)CO)C(=O)c2ccccc2-c2ccccc2CO[C@@H]1CN(C)S(=O)(=O)c1ccc([N+](=O)[O-])cc1,inconclusive: 45.9%
10,CN(C[C@@H]1[C@H](c2ccccc2)[C@@H](CO)N1Cc1ccccn1)S(C)(=O)=O,inconclusive: 18.9%
11,CCc1nc(N2[C@H](CO)[C@@H](c3ccccc3-c3ccc(F)cc3)[C@@H]2C#N)sc1C,active: 55.4%
12,C[C@H](O)C#Cc1ccc([C@@H]2[C@H]3CN(C(=O)c4ccc5c(c4)OCO5)CCCCN3[C@H]2CO)cc1,inactive: -48.5%
13,COc1ccccc1NC(=O)N1CCCCN2[C@@H](CO)[C@H](c3ccc(-c4cccc(C#N)c4)cc3)[C@@H]2C1,active: 75%
14,C[C@@H]1CCCCO[C@@H](CN(C)CC2CCCCC2)[C@@H](C)CN([C@@H](C)CO)C(=O)c2cc(NS(C)(=O)=O)ccc2O1,inactive: 2.58%
15,C[C@@H]1CN([C@@H](C)CO)C(=O)c2ccccc2-c2ccccc2CO[C@@H]1CN(C)Cc1cccc2c1OCCCO2,inactive: 14.7%
16,C[C@@H]1CN([C@H](C)CO)C(=O)c2ccccc2-c2ccccc2CO[C@@H]1CN(C)Cc1cccc2c1OCCCO2,active: 59.4%
17,CN1C(=O)c2cc(NS(=O)(=O)c3ccccc3F)ccc2OC[C@@H]2O[C@@H](CC(=O)NC3Cc4ccccc4C3)CC[C@@H]21,active: 108%
18,N#C[C@H]1N[C@H](CO)[C@H]1c1ccc(C#CC2CCCCC2)cc1,inconclusive: 45.3%
19,CO[C@@H]1CN(C)C(=O)c2cc(NS(=O)(=O)c3ccccc3C)ccc2OC[C@@H](C)N(S(=O)(=O)c2ccccc2)C[C@H]1C,active: 75.2%
20,C[C@H]1CC=CC[C@H](c2cccc(Cl)c2)NC(=O)[C@H](Cc2ccccc2)N(C)C(=O)c2ccccc2O1 (mixture of isomers),inactive: -228%
